Our source for the switch fluorescence ratio values is the supplement of paper PMC10126150.

Values marked as one replicate rest on one cluster of the flow cell; about a third of the high ones do not repeat.
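Note: ATP exposure 15 min at 22 °C before imaging.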

The data set deals with ATP. In words: switch fluorescence ratio, 500 uM ATP over buffer (Cy3 cluster intensity, sum of 5 cycles each) (fold (ratio)); higher = stronger signal-on switching upon ATP binding; sequences stand for … in TCGTCGGCAGCGTCAGATGTGTATAAGAGACAGTTTTTTTTTTTTTTTTTTTTTTTTT…TC. To be noted: aptamer strand: ATP DNA aptamer (quencher-CACCTGGGGGAGTATTGCGGAGGAAGG + anchor), 100 nM annealed; ATP concentration: 500 uM; one replicate. The procedure, abridged: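 Cy3-labelled switching-strand clusters on a modified Illumina MiSeq flow-cell were annealed to 100 nM quencher-labelled ATP aptamer and imaged first in selection buffer, then after 15 min with 500 uM ATP at 22 °C. NaOH stripping and re-annealing separated each of five buffer/ATP cycles, and clusters outside 100-1000 RFU were excluded. The fluorescence ratio sums target-cycle Cy3 intensity over buffer-cycle Cy3 intensity per cluster and averages it per switch-domain sequence.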
In the case of TCCCCACCGA, the switch fluorescence ratio is 1.29.
As to AATTAAATTC, the switch fluorescence ratio was 1.09.
The result for ATGAGACGAT reads 0.961.
The result for ACATGGGCCA reads 1.04; that for GATCTCCTT, 1.02.
Next, ATTCTTCAGT: 1.02; TACTACGCCC: 3.06; TCTAATGTG: 1.01.
Turning to TCGAAATTGT, the switch fluorescence ratio was determined as 1.01.
The result for TCGGAAGGT reads 1.02; that for TAGGTATAGT, 0.97.
With ACGTAGATGG, the switch fluorescence ratio came to 1.05.
Regarding GCCAGGTTTT, the switch fluorescence ratio is 1.06.
The result for TCTATCGTTT reads 0.984; that for CCGTCTGCGG, 1.02; that for GGGAAATTT, 1.1.
Next, CCTTGGGCGT: 1.04; CAATCCTAAT: 0.966; TTACTCTATT: 1.02.
The result for TGGGGAGACT reads 1.03.
In the case of TGAACACTTT, the switch fluorescence ratio was determined as 1.03.
Turning to TAGGGAACAA, the switch fluorescence ratio amounted to 0.981.
Next, ATATCGTATA: 1.03; ACTGCTGGGT: 0.989; ATGTTTCGGG: 0.945.
As to TACTCCGGGG, the switch fluorescence ratio turned out to be 1.31.
Next, TTGATGTTAT: 0.979.
With GGCATTGAAA, the switch fluorescence ratio came out at 1.18.
For ACTAGAACAA, the switch fluorescence ratio was found to be 1.02.
The result for CTGAGCCCCC reads 1.26.
Next, TAGGAGTTCC: 1.02; AAAAATTGCG: 1.01; GAACACGAAC: 1.53.
Regarding CTGAGATCGA, the switch fluorescence ratio was 1.02.
As for CATGTGCGAC, the switch fluorescence ratio was determined as 1.24.
The result for CCAGACGCCA reads 2.16.
Consider AGTTTCTTCG, for which the switch fluorescence ratio worked out at 1.02.
Next, GTTATGAAGC: 1.07.
The result for TGGGATAAG reads 0.986; that for TACGAAGTT, 1; that for CACCCAGGAA, 2.15.
The result for ACGGGTCTGA reads 1.04; that for TAGTGGGGC, 0.962.
As to CGGAGGTAAA, the switch fluorescence ratio is 1.04.
The result for ATATCTGCAC reads 1.14; that for ATAGCATGTG, 0.995; that for ATTCTCATCA, 1.
The result for CAACGCACAA reads 1.72; that for CAGCCGTTTG, 0.988.
Next, ACTGAAAGAA: 1.58; ATCTGCGTG: 0.966; CAGAGGGGCT: 0.984.
For CTCGGCACTA, the switch fluorescence ratio amounted to 3.31.
Next, TTTAGGGCAT: 1.05.
The result for GAGTAGGGCC reads 1.07; that for AACGTAAAAG, 1.05; that for CACCTATTTT, 1.11.
In the case of TATTGTCATC, the switch fluorescence ratio turned out to be 0.991.
The result for ACGGGCGGGA reads 1.11; that for GCCTTTTAAC, 1.02.
The result for TATGGTAGGA reads 0.97.
Regarding TCTTGAACAT, the switch fluorescence ratio was determined as 0.996.
Next, AAATGAGGTG: 1.03; CGGTACATCG: 0.941.
The result for TAAGCGAGCT reads 0.989.
The result for ACCTTGTAGC reads 1.07.
In the case of GGTGCCGGGT, the switch fluorescence ratio was 1.08.
